Among the data in the supplement of paper PMC9446081 are relative growth values, retold here.

Among all 39,000 compounds or so, about 220 (0.56%) showed activity. This is one part of the list.
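Further: static incubation at 37 °C against the wild-type strain, values averaged over two biological replicates.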

The subject of this test is Escherichia coli K-12 BW25113. The test is described as follows: relative growth (OD600 normalised to plate interquartile mean) (fraction); higher = less growth inhibition, active = 0.2 or less. To be noted: 50 µM; LB; incubation time: overnight (16-24 h).
Consider `COc1ccc2c3c([nH]c2c1)[C@H](CO)N(C[C@]13CN(Cc2cc(on2)-c2ccccc2)C1)C(=O)Nc1ccc(cc1)F`, for which the relative growth was inactive: 1.01. For `COCC#Cc1cnc2c(c1)C(=O)N([C@H](C)CO)C[C@@H](C)[C@H](CN(C)C(=O)CCN1CCCCC1)O2`, the relative growth was inactive: 1. As to `[N-]=[N+]=NCc1ccccc1C[C@]1(C(=O)NCCN2CCOCC2)COC(c2ccc(OCCCO)cc2)=N1`, the relative growth is inactive: 0.888.

Turning to `COc1cccc(S(=O)(=O)Nc2ccc3c(c2)C(=O)N(C)C[C@H](OC)[C@H](C)CN(C(=O)Cc2cccnc2)[C@@H](C)CO3)c1`, the relative growth is inactive: 1.

Consider `Cc1ccc(S(=O)(=O)Nc2ccc3c(c2)C(=O)N([C@@H](C)CO)C[C@@H](C)[C@H](CN(C)S(=O)(=O)c2cccs2)O3)cc1`, for which the relative growth is inactive: 1.

`Cc1noc(C)c1NC(=O)N(C)C[C@@H]1OCCCC[C@@H](C)Oc2ccc(NC(=O)Nc3ccc(F)cc3)cc2C(=O)N([C@H](C)CO)C[C@H]1C`: the relative growth is inactive: 0.984. With `C[C@@H]1CN([C@@H](C)CO)C(=O)c2cc(C#CCN(C)C)cnc2O[C@@H]1CN(C)Cc1cccc(C(=O)O)c1`, the relative growth is inactive: 0.973. As for `C[C@H](CO)N1C[C@H](C)[C@H](CN(C)C(=O)Nc2ccc3c(c2)OCO3)Oc2ccc(NC(=O)c3ccncc3)cc2C1=O`, the figure is inactive: 1.03; as for `CC(C)NC(=O)Nc1ccc2c(c1)C(=O)N([C@@H](C)CO)C[C@H](C)[C@H](CN(C)Cc1ccc(C(F)(F)F)cc1)OCCCC[C@@H](C)O2`, inactive: 0.963.

As for `CC(C)n1nccc1NC(=O)CN`, the relative growth was inactive: 0.984. In the case of `C[C@H]1CN([C@@H](C)CO)C(=O)Cc2cc(NC(=O)Cc3ccccc3)ccc2O[C@@H]1CN(C)C(=O)Nc1cccc2ccccc12`, the relative growth is inactive: 1.01. As to `C[C@H]1CCCCO[C@@H](CN(C)S(=O)(=O)c2cccs2)[C@@H](C)CN([C@@H](C)CO)C(=O)c2cc(NS(=O)(=O)c3ccc(Cl)cc3)ccc2O1`, the relative growth is inactive: 1.02. Regarding `COCC(=O)Nc1ccc2c(c1)OC[C@@H](C)N(C(=O)c1ccccc1F)C[C@@H](C)[C@H](OC)CN(C)C2=O`, the relative growth was inactive: 0.982. As for `C[C@H]1CN([C@@H](C)CO)C(=O)c2cccc(NC(=O)c3cnccn3)c2O[C@@H]1CN(C)C(=O)Nc1ccc(F)cc1`, the figure is inactive: 0.988; as for `CC1(C)[C@H]2CC[C@@]1(C)c1nn(-c3ccccc3)c(C(F)(F)F)c12`, inactive: 1.01; as for `Cc1noc(C)c1S(=O)(=O)N(C)C[C@H]1Oc2ccc(NS(=O)(=O)c3cccs3)cc2CC(=O)N([C@H](C)CO)C[C@@H]1C`, inactive: 1.05. For the molecule `C[C@H](CO)N1C[C@H](C)[C@H](CN(C)C(=O)Cc2ccncc2)Oc2cc(C#CC3CCCC3)ccc2S1(=O)=O`, the relative growth was inactive: 0.99.

For `CO[C@@H]1CN(C)C(=O)c2cc(NC(C)=O)ccc2OC[C@H](C)N(S(=O)(=O)c2cn(C)cn2)C[C@H]1C`, the relative growth is inactive: 1.01. As for `CC(C)(C)[S@@](=O)N1Cc2cc(C(=O)NCCc3ccncc3)nc(-c3cccc(-c4ccccc4)c3)c2[C@H]1CCO`, the figure is inactive: 1.02; as for `COCC(=O)N1C[C@@H](C)[C@H](OC)CN(C)C(=O)c2ccc(NC(=O)c3ccc(OC)cc3)cc2OC[C@@H]1C`, inactive: 0.997; as for `C[C@@H]1CN([C@@H](C)CO)S(=O)(=O)c2ccc(Br)cc2O[C@H]1CN(C)C(=O)c1cccc(F)c1`, inactive: 1.02. Then `Cc1noc(C)c1NC(=O)Nc1ccc2c(c1)C(=O)N([C@@H](C)CO)C[C@@H](C)[C@@H](CN(C)Cc1ccc(C(=O)Nc3ccccc3N)cc1)O2`, with inactive: 0.975. Then `COc1ccc(S(=O)(=O)N(C)C[C@H]2OCCCC[C@H](C)Oc3ccc(NC(=O)C4CCCCC4)cc3C(=O)N([C@H](C)CO)C[C@@H]2C)cc1`, with inactive: 1.02; and `O[C@@H]1[C@@H](O)[C@H](Nc2ccccc2)OC[C@H]1O`, with inactive: 1.03; and `O=C(/C=C/c1ccc(O)c(O)c1)O[C@@H]1C[C@@](O)(C(=O)O)C[C@@H](O)[C@@H]1O`, with inactive: 1.05.

As for `COc1ccc(S(=O)(=O)N(C)C[C@@H]2OCCCC[C@H](C)Oc3ccc(NC(=O)Nc4ccc(F)cc4)cc3C(=O)N([C@@H](C)CO)C[C@@H]2C)cc1`, the relative growth was inactive: 1.04.

As for `C[C@@H]1CCCCO[C@@H](CN(C)Cc2ccc(Cl)c(Cl)c2)[C@@H](C)CN([C@H](C)CO)C(=O)c2cc(NC(=O)c3ccccc3)ccc2O1`, the relative growth is inactive: 1.01. For `C[C@H]1CN([C@@H](C)CO)C(=O)Cc2cc(NC(=O)Cn3cnnn3)ccc2O[C@@H]1CN(C)S(=O)(=O)c1ccc(Cl)cc1`, the relative growth is inactive: 0.988.

`CN1CCN(C(=O)C[C@H]2CC[C@H]3[C@@H](COc4ccc(NC(=O)C5CCOCC5)cc4C(=O)N3C)O2)CC1`: the relative growth was inactive: 0.995. Then `C[C@H]1CN([C@@H](C)CO)C(=O)c2cc(NC(=O)Nc3ccc4c(c3)OCO4)ccc2O[C@H]1CN(C)Cc1ccc(C(=O)Nc2ccccc2N)cc1`, with inactive: 0.991; and `CC(=O)O[C@H]1C[C@@]2(C)[C@@H](C[C@@H](O)[C@@H]3[C@@]4(C)CC[C@@H](O)[C@@H](C)[C@@H]4CC[C@@]32C)/C1=C(/CCC=C(C)C)C(=O)O`, with inactive: 0.877; and `C[C@@H]1CN([C@H](C)CO)C(=O)c2cccc(NS(=O)(=O)c3cn(C)cn3)c2O[C@@H]1CN(C)C(=O)NC1CCCCC1`, with inactive: 0.987. Regarding `C[C@@H]1CCCCO[C@@H](CN(C)Cc2ccc(C(=O)O)cc2)[C@@H](C)CN([C@@H](C)CO)C(=O)c2cc(NC(=O)Cc3ccccc3)ccc2O1`, the relative growth was inactive: 1. As to `COc1ccc(CN(C)C[C@H]2Oc3ccc(NC(=O)Cn4cnnn4)cc3CC(=O)N([C@@H](C)CO)C[C@@H]2C)cc1`, the relative growth was inactive: 0.992. `C[C@@H]1CN([C@@H](C)CO)S(=O)(=O)c2ccc(-c3ccc(C#N)cc3)cc2O[C@H]1CN(C)C(=O)CN(C)C`: the relative growth is inactive: 0.982.

With `Cc1cc(=O)n(CCO)c(=O)[nH]1`, the relative growth is inactive: 1.04.

Take `C[C@@H]1CN([C@@H](C)CO)C(=O)c2cccc(NC(=O)Nc3cccc4ccccc34)c2O[C@H]1CN(C)S(=O)(=O)c1ccc(OC(F)(F)F)cc1`: the relative growth was inactive: 0.791. On to `COc1ccc(S(=O)(=O)N(C)C[C@@H]2Oc3c(NS(=O)(=O)c4ccc(F)cc4)cccc3C(=O)N([C@@H](C)CO)C[C@H]2C)cc1`, for which the relative growth was inactive: 0.992. With `CCCNC(=O)C[C@@H]1CC[C@H]2[C@@H](COC[C@@H](O)CN2S(=O)(=O)c2ccc(Oc3ccccc3)cc2)O1`, the relative growth is inactive: 0.983. In the case of `C[C@@H]1CN([C@@H](C)CO)C(=O)c2cccc(NC(=O)c3ccncc3)c2O[C@@H]1CN(C)Cc1ccc(Oc2ccccc2)cc1`, the relative growth was inactive: 1. `CNC[C@H]1OCCCC[C@@H](C)Oc2ccc(NS(=O)(=O)c3cn(C)cn3)cc2C(=O)N([C@@H](C)CO)C[C@@H]1C`: the relative growth is inactive: 0.983. As for `Cc1ccc(S(=O)(=O)Nc2ccc3c(c2)CC(=O)N([C@H](C)CO)C[C@H](C)[C@@H](CN(C)S(=O)(=O)c2c(C)noc2C)O3)cc1`, the figure is inactive: 0.995; as for `CN1C(=O)c2cc(NS(=O)(=O)c3cccc(F)c3)ccc2OC[C@@H]2O[C@@H](CC(=O)NCCN3CCCCC3)CC[C@@H]21`, inactive: 0.986. As to `C[C@@H]1CCCCO[C@H](CN(C)S(=O)(=O)c2ccc(F)cc2)[C@@H](C)CN([C@H](C)CO)C(=O)c2cc(NC(=O)NC3CCCCC3)ccc2O1`, the relative growth was inactive: 1.02. Turning to `C[C@@H]1CCCCO[C@H](CN(C)S(=O)(=O)c2ccc(F)cc2)[C@H](C)CN([C@H](C)CO)C(=O)c2cc(NC(=O)C3CCCCC3)ccc2O1`, the relative growth is inactive: 1.03. Regarding `NC(=O)[C@H]1CCCNC1`, the relative growth is inactive: 0.916. As for `C[C@@H]1CN([C@@H](C)CO)C(=O)c2cccc(NC(=O)CCCCCC(=O)Nc3ccccc3N)c2O[C@@H]1CN(C)CC1CCCCC1`, the figure is inactive: 0.978; as for `C[C@@H]1CN([C@@H](C)CO)C(=O)c2cccc(NS(=O)(=O)c3cn(C)cn3)c2O[C@@H]1CN(C)C(=O)Nc1ccccc1`, inactive: 0.994; as for `C[C@@H]1CN([C@H](C)CO)C(=O)Cc2cc(NS(C)(=O)=O)ccc2O[C@H]1CN(C)Cc1ccc(C(=O)O)cc1`, inactive: 0.978. `C[C@H](CO)N1C[C@H](C)[C@@H](CN(C)C(=O)CN(C)C)Oc2cc(C#C[C@@H](C)O)ccc2S1(=O)=O`: the relative growth was inactive: 1.01.

For `C[C@@H]1CN([C@@H](C)CO)C(=O)c2cccc(NC(=O)Nc3ccc(C(F)(F)F)cc3)c2O[C@@H]1CN(C)S(=O)(=O)c1ccc(F)cc1`, the relative growth is inactive: 0.984. In the case of `C[C@H]1CCCCO[C@@H](CN(C)C(=O)CCC(F)(F)F)[C@@H](C)CN([C@@H](C)CO)C(=O)c2cc(NS(=O)(=O)c3ccccc3)ccc2O1`, the relative growth was inactive: 0.989. As for `C[C@H](CO)N1C[C@H](C)[C@H](CN(C)C(=O)c2cc(Cl)cc(Cl)c2)OCc2ccccc2-c2ccccc2C1=O`, the relative growth was inactive: 0.98. For `C[C@@H]1CN([C@@H](C)CO)C(=O)Cc2cc(NC(=O)NC3CCCCC3)ccc2O[C@H]1CN(C)C(=O)Nc1ccc(C(F)(F)F)cc1`, the relative growth is inactive: 0.971. For the molecule `COc1ccc(S(=O)(=O)N(C)C[C@@H]2Oc3ccc(NS(=O)(=O)c4ccccc4)cc3C(=O)N([C@@H](C)CO)C[C@@H]2C)cc1`, the relative growth is inactive: 1.01. Then `C[C@@H]1CN([C@H](C)CO)C(=O)c2cc(NS(=O)(=O)c3ccc(Cl)cc3)ccc2O[C@@H](C)CCCCO[C@@H]1CN(C)C(=O)CCC(F)(F)F`, with inactive: 0.993; and `C[C@H](CO)N1C[C@H](C)[C@@H](CN(C)C(=O)Nc2ccccc2F)Oc2ncc(Br)cc2C1=O`, with inactive: 1.03.
